Measurements: ChEMBL document CHEMBL4888484, “Replenishing the malaria drug discovery pipeline: Screening and hit evaluation of the MMV Hit Generation Library 1 (HGL1) against asexual blood stage Plasmodium falciparum ,using a nano luciferase reporter read-out” (2022)
The campaign covered roughly 150,000 compounds. About 540 (0.36%) showed an effect of 50% or more. The list shows a part of the results.

system: Plasmodium falciparum; experiment: Primary screen in NF54 nanoGlo assay, in single point, at 2uM, 72h; a lower Z score goes with more inhibition; format: functional, Erythrocyte; conditions: timepoint 72 hour

SMILES	% Inhibition	Z score
O=C1OC[C@H]2CN(c3ncnc4sccc34)CCN12	8%	-1.28
CCn1c(Oc2cccnc2)nc2c1c(=O)n(C)c(=O)n2C	7%	-1.16
Cc1cc(C(=O)N2CCC(C)C2CO)c(C)n1-c1cccc(Cl)c1 (stereo not drawn)	5%	-0.73
COc1ccc2c(CC(=O)N3CCC[C@H]3C(N)=O)coc2c1C	-6%	1.24
Cc1csc(CN(C)C(=O)c2cc3ncccn3n2)n1	7%	-1.49
O=C(O)[C@@H](c1ccc(OCC2CC2)cc1)N1CCC(Cn2ccnc2)CC1	-1%	0.15
O=C(NC1c2ccccc2CCC1n1ccnc1)c1cscn1 (stereo not drawn)	-14%	1.16
O=S(=O)(c1ccc(F)cc1)n1nc(Nc2ccccc2Cl)cc1Nc1ccccc1Cl	-3%	0.49
CC(C)CCC(=O)NCC(=O)NCc1ccnc(N2CCCCCC2)c1	-20%	2.02
CN1C(=O)c2cc(NC(=O)c3ccccc3Cl)ccc2Oc2ncccc21	-18%	1.94
CC1OCCC1S(=O)(=O)N1CCc2cc(Br)ccc21 (stereo not drawn)	-12%	2.23
C1CCC(c2nsc(NCc3nnn[nH]3)n2)C1	-1%	0.22
O=C(NC1CCCC1)N1CC[C@H](Cc2noc(C3CC3)n2)C1	11%	-1.38
O=C(CC1CC1)NCc1cnn2c1CCCC2	-1%	0.09
CN(C)S(=O)(=O)NC1C(C)(C)C(NS(=O)(=O)N(C)C)C1(C)C (stereo not drawn)	1%	-0.13
CN(C)S(=O)(=O)c1csc(C(=O)NCc2cccnc2)c1	-21%	1.94
CCOc1ccc(C(=O)N(CN2CCCC2=O)c2cc(C)on2)cc1	-1%	0.23
COc1ccc(F)cc1CN1CCN(CC(=O)N2CCN(c3ccccc3)CC2)CC1	-13%	1.24
Cc1ccc([C@H]2CN(C(=O)c3cc(-c4ccccc4)on3)C[C@@H]2N)o1	2%	-0.45
Cc1ccc(C(=O)N2CC[C@H](N3CCN(C)CC3)[C@H](CCCO)C2)cc1O	-12%	1.77
CC(C)(C)CCS(=O)(=O)NC(=O)Cc1ccccc1CC#N	-8%	1.57

SMILES	% Inhibition	Z score
COC(=O)c1ccc(N2CCN(C3CCOC3=O)C(C)C2)cc1 (stereo not drawn)	12%	-2.31
C[C@H](C(=O)NCc1ccccc1)C1CCN(S(=O)(=O)c2ccc(Cl)s2)CC1	-2%	0.24
Cc1nc(NCCCc2c(C)noc2C)cc(C2CCNCC2)n1	4%	-0.35
O=C(NCc1ccccn1)c1cc(-c2ccc3c(c2)OCCO3)nc2ccccc12	10%	-1.42
Cn1cc(-c2ccc(CN[C@H]3CCC(=O)NC34CCC4)cc2)cn1	-10%	1.96
CS(=O)(=O)c1cccc(-c2nnc(C3(c4cccc(Cl)c4)CCOCC3)o2)c1	-10%	1.59
CCC[C@H](NC(=O)CCCn1cccn1)c1nccn1C	1%	-0.13
O=C1C2C3CCC(C3)C2C(=O)N1C1CCCCC1 (stereo not drawn)	-4%	0.47
CC(C)Oc1ccc(CNC(=O)CN2CCn3nc(-c4ccc(Cl)cc4)cc3C2=O)cc1	3%	-0.35
Cc1c(C(=O)NCc2cccc(CO)n2)ccn1C(C)C	-3%	0.52
CC1(C)CCCN(C(=O)[C@H]2CCCN(S(C)(=O)=O)C2)C1	9%	-1.25
c1coc(-c2nnc(CN3CCN4CCCC[C@H]4C3)o2)c1	3%	-0.5
C[C@@H](CN(C)Cc1ncnn1C)Oc1ccc(Cl)c(Cl)c1	1%	-0.07
CC(C)[C@@](C)(C#N)NC(=O)COc1ccc(Br)cc1	-1%	0.18
CS(=O)(=O)[C@H]1CCN(C(=O)C2(C3CCCCC3)CCCCC2)C1	-2%	0.25
O=C(COc1cccc(F)c1)N1CCOC[C@@H](CO)C1	-17%	2.18
O=C1CN(C(=O)NCC[C@H]2C[C@@H]2Cc2ccccc2)CCCN1	-23%	2.43
O=C(O)c1cc(CN2CCc3[nH]cnc3[C@@H]2c2ccsc2)ccc1O	4%	-0.52
O=C(OCCc1c[nH]nn1)C1CCCCC1	6%	-0.84
COc1ncccc1N[C@@H](C)c1cc(C)sc1C	1%	-0.17
C[C@@H](C(=O)NCc1nc(C(F)(F)F)n[nH]1)n1cccn1	2%	-0.27

SMILES	% Inhibition	Z score
CCCCN1CCN([C@@H](C(=O)N2CCC(F)(F)CC2)c2ccccc2)C(=O)C1=O	-10%	1.35
CC(C)(C)c1cc(Cn2cc([C@H]3CCCNC3)nn2)[nH]n1	-34%	3.01
N#CC1(CS(=O)(=O)N2CCC[C@H](c3nnc[nH]3)C2)CCCC1	-4%	0.72
Cc1n[nH]c(C)c1CC(=O)N[C@H]1CC[C@H](n2cnnc2)CC1	-6%	0.96
CCOc1ncccc1C(=O)Nc1cc(C)nn1-c1cccc(Br)c1	-2%	0.4
CCn1cc(S(=O)(=O)N2CC[C@@]3(CCCN(CC4CC4)C3=O)C2)cn1	-6%	0.86
COCCN1CC(=O)N[C@H]2CN(C(=O)C3CCCC3)C[C@@H]2OCc2cccc(c2)Oc2cncc(c2)C1=O	-5%	0.74
CN(C)C(=O)c1ccc(Br)cc1NC(=O)OC(C)(C)C	-18%	3.47
CCNc1n[nH]c(N)c1-c1nc(-c2ccc(OC)cc2)no1	-10%	1.28
O=C(Nc1ccc(N2CCOCC2)cc1)[C@@H](c1cccc(F)c1)N(Cc1ccc(Cl)cc1)C(=O)Cn1nnc2ccccc21	5%	-0.58
COc1ccc(OC)c(CN2CCc3nc(N4CCOCC4)ncc3C2)c1	1%	-0.14
CCCN1C(=O)COc2ccc(-c3noc(Cc4ccc(NC(C)=O)cc4)n3)cc21	4%	-0.44
CC1CCN(S(=O)(=O)c2ccc3c(c2)-c2oncc2CO3)CC1	-22%	2.17
Cc1cc2n(n1)CCN(C(=O)c1cncc(F)c1)C2	-7%	1.27
CCc1nc(C)nc(N2CCN(C(=O)c3ccccc3Cl)CC2)c1Cc1ccc(Cl)cc1	-13%	1.96
Cc1nc(C2=C(O)CN(c3ccc(Oc4ccccc4)cc3)C2=N)sc1C	-11%	1.15
COCc1nc(C)cc(N2CC[C@H](c3ccncc3)C2)n1	-43%	5.08
Cc1nc2n(n1)C[C@@H](C(=O)N(C)c1ncccc1F)CC2	-8%	1.06
CC(C)(C)c1ccc2c(c1)N(S(=O)(=O)c1ccccc1)C[C@@H](C(=O)Nc1ccc3c(c1)OCO3)O2	-14%	2.63
CC(=O)c1c(C)[nH]c(C(=O)N2CC(=O)Nc3ccccc32)c1C	5%	-0.59
C[C@H](Oc1ccccc1)C(=O)Nc1cnoc1	-11%	1.76

SMILES	% Inhibition	Z score
Cc1ccc(OCC(=O)NCc2ccc3c(c2)OCO3)cn1	-2%	0.14
COCC(=O)N1CCC(CCOCc2ccccc2F)CC1	-5%	0.97
Cn1ncn(CC(=O)Nc2cccc(Cl)c2)c1=O	-4%	0.66
CC(C)(C)c1noc(-c2cccc(=O)n2CC(=O)Nc2ccc(F)cc2)n1	-12%	1.16
CCN1CCN(c2nc3c(s2)CN(C(=O)COC)CC3)CC1	-9%	1.2
N#CCCN(CC1CC1)C(=O)[C@H](O)c1ccc(Br)cc1	1%	-0.24
COc1ccc(OC)c2c(/C=C/c3c[nH]c4ccccc34)ccnc12	-8%	0.9
O=C(Nc1ccc2c(c1)CNC2)[C@H]1C[C@@H]1c1c(F)cccc1Cl	-1%	0.07
COc1ccc(-c2noc([C@H](C)O)c2C(=O)NC2CCOCC2)cc1OC	2%	-0.25
Cc1noc(-c2cccnc2NCCCC(C)(C)C2OCCO2)n1	-9%	1.34
COc1ccc(C(=O)N2CCN(c3ncnc4c3CCC4)CC2)cc1	-3%	0.44
Cc1cc(=O)n(CC(=O)Nc2ccc(F)cc2)c(N2CCOCC2)n1	-22%	2.38
CNC(=O)c1nc(-c2ccccc2)n2c1CCN(C(=O)c1cccs1)CC2	-1%	0.12
CCc1nc(C)sc1C(=O)NCCCN(C)c1ccccc1	-16%	2.71
O=C(NCCCn1ccccc1=O)c1cccc2c1NCCC2	-15%	2.84
C[C@H]1Cc2ccccc2N1C(=O)c1ccc(N2CCC(Cc3ccccc3)CC2)nn1	-18%	3.17
O=C(Cc1cccnc1)N1CC[C@H](Oc2ncccn2)C1	-13%	2.48
Cc1ccc(NC(=O)c2ccc3[nH]c4c(c3c2)CN(C(=O)C2CCC2)CC4)cc1	12%	-1.77
N#Cc1ccccc1Cn1cnc2c1c(=O)n(Cc1ccccc1)c(=O)n2-c1ccc(Cl)cc1	6%	-0.98
COCCNC(=O)C1CC(c2cccc(C)c2)CN(Cc2cccc(F)c2)C1 (stereo not drawn)	-4%	0.71
c1ccc2c(CCN3CCOCC34CC4)nsc2c1	-4%	0.45
